# From the supplement of paper PMC8728848
# This is one part of the list.
# B1: rMpL (Macrolepiota procera) (protein)
# chain: MSTQVSSGRTYKITNVIAGTVIDLSGEDNKSIIGYPYHSGKNQQWTFNWTGKAWTLRSASSGSYLGIEGTPAGGTRLVAVNDPFEWHIWRDEANENAFRIFVPFTNYNLDLSGYGDTTPGTPVQLWWTWEGLHQTWTIDRP
# Legend:
# Test in all cases: glycan array binding signal (z-score within array); higher = stronger binding
# Conditions in all cases: glycan notation: IUPAC condensed, linker removed
# [1] = target: Kdn(a2-3)Gal(b1-4)[Fuc(a1-3)]GlcNAc
# Method in brief: (§1)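 Glycan array data came from 3228 arrays in the Consortium for Functional Glycomics database, and only arrays with an available protein sequence were kept. Glycan names were put into IUPAC-condensed notation, and columns mapping to the same glycan were averaged. The binding signal is a within-array Z-score, averaged across arrays of one protein sequence run at different concentrations or buffers and across linkers. A negative Z-score can be read as non-binding.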
# Kdn(a2-6)Gal(b1-4)GlcNAc = target: Kdn(a2-6)Gal(b1-4)GlcNAc
# Method in brief: as §1
# [2] = target: Man(a1-2)Man(a1-2)Man(a1-3)Man
# Method in brief: as §1
# [3] = target: Man(a1-2)Man(a1-2)Man(a1-6)[Man(a1-3)]Man
# Method in brief: as §1
# Man(a1-2)Man(a1-3)Man = target: Man(a1-2)Man(a1-3)Man
# Method in brief: as §1
# [4] = target: Man(a1-2)Man(a1-3)[Man(a1-2)Man(a1-6)]Man
# Method in brief: as §1
# [5] = target: Man(a1-2)Man(a1-3)[Man(a1-2)Man(a1-6)]Man(a1-6)[Man(a1-2)Man(a1-2)Man(a1-3)]Man
# Method in brief: as §1
# [6] = target: Man(a1-2)Man(a1-3)[Man(a1-2)Man(a1-6)]Man(a1-6)[Man(a1-2)Man(a1-2)Man(a1-3)]Man(b1-4)GlcNAc(b1-4)GlcNAc
# Method in brief: as §1
# [7] = target: Man(a1-2)Man(a1-3)[Man(a1-6)]Man(a1-6)[Man(a1-2)Man(a1-3)]Man(b1-4)GlcNAc(b1-4)GlcNAc
# Method in brief: as §1
# [8] = target: Man(a1-2)Man(a1-6)[Man(a1-3)]Man(a1-6)[Man(a1-2)Man(a1-2)Man(a1-3)]Man
# Method in brief: as §1
# [9] = target: Man(a1-2)Man(a1-6)[Man(a1-3)]Man(a1-6)[Man(a1-2)Man(a1-2)Man(a1-3)]Man(b1-4)GlcNAc(b1-4)GlcNAc
# Method in brief: as §1
# Man(a1-3)[Man(a1-6)]Man = target: Man(a1-3)[Man(a1-6)]Man
# Method in brief: as §1
# [10] = target: Man(a1-3)[Man(a1-6)]Man(a1-6)[Man(a1-2)Man(a1-3)]Man(b1-4)GlcNAc(b1-4)GlcNAc
# Method in brief: as §1
# [11] = target: Man(a1-3)[Man(a1-6)]Man(a1-6)[Man(a1-3)]Man
# Method in brief: as §1
# [12] = target: Man(a1-3)[Man(a1-6)]Man(a1-6)[Man(a1-3)]Man(b1-4)GlcNAc(b1-4)GlcNAc
# Method in brief: as §1
# [13] = target: Man(a1-3)[Man(a1-6)]Man(b1-4)GlcNAc(b1-4)GlcNAc
# Method in brief: as §1
# [14] = target: Man(a1-3)[Man(a1-6)]Man(b1-4)GlcNAc(b1-4)[Fuc(a1-6)]GlcNAc
# Method in brief: as §1
# Man(a1-6)Man = target: Man(a1-6)Man
# Method in brief: as §1
# Man(b1-4)GlcNAc = target: Man(b1-4)GlcNAc
# Method in brief: as §1
# MurNAc(b1-4)GlcNAc = target: MurNAc(b1-4)GlcNAc
# Method in brief: as §1
# Neu5Ac(a2-3)Gal = target: Neu5Ac(a2-3)Gal
# Method in brief: as §1
# [15] = target: Neu5Ac(a2-3)Gal(b1-3)GalNAc
# Method in brief: as §1
# [16] = target: Neu5Ac(a2-3)Gal(b1-3)GalNAc(b1-3)Gal(a1-4)Gal(b1-4)Glc
# Method in brief: as §1
# [17] = target: Neu5Ac(a2-3)Gal(b1-3)GalNAc(b1-4)[Neu5Ac(a2-3)]Gal(b1-4)Glc
# Method in brief: as §1
# [18] = target: Neu5Ac(a2-3)Gal(b1-3)GalNAc(b1-4)[Neu5Ac(a2-8)Neu5Ac(a2-3)]Gal(b1-4)Glc
# Method in brief: as §1
# [19] = target: Neu5Ac(a2-3)Gal(b1-3)GalNAc6S
# Method in brief: as §1
# [20] = target: Neu5Ac(a2-3)Gal(b1-3)GlcNAc
# Method in brief: as §1
# [21] = target: Neu5Ac(a2-3)Gal(b1-3)GlcNAc(b1-2)Man
# Method in brief: as §1
# [22] = target: Neu5Ac(a2-3)Gal(b1-3)GlcNAc(b1-2)Man(a1-3)[GlcNAc(b1-4)][Neu5Ac(a2-3)Gal(b1-3)GlcNAc(b1-2)Man(a1-6)]Man(b1-4)GlcNAc(b1-4)GlcNAc
# Method in brief: as §1
# [23] = target: Neu5Ac(a2-3)Gal(b1-3)GlcNAc(b1-2)Man(a1-3)[Neu5Ac(a2-3)Gal(b1-3)GlcNAc(b1-2)Man(a1-6)]Man(b1-4)GlcNAc(b1-4)GlcNAc
# Method in brief: as §1
# [24] = target: Neu5Ac(a2-3)Gal(b1-3)GlcNAc(b1-2)[Neu5Ac(a2-3)Gal(b1-3)GlcNAc(b1-4)]Man(a1-6)[Neu5Ac(a2-3)Gal(b1-3)GlcNAc(b1-2)Man(a1-3)]Man(b1-4)GlcNAc(b1-4)GlcNAc
# Method in brief: as §1
# [25] = target: Neu5Ac(a2-3)Gal(b1-3)GlcNAc(b1-3)Gal(b1-3)GlcNAc
# Method in brief: as §1
# [26] = target: Neu5Ac(a2-3)Gal(b1-3)GlcNAc(b1-3)Gal(b1-4)GlcNAc
# Method in brief: as §1
# [27] = target: Neu5Ac(a2-3)Gal(b1-3)GlcNAc(b1-3)GalNAc
# Method in brief: as §1
# [28] = target: Neu5Ac(a2-3)Gal(b1-3)GlcNAc(b1-4)Gal(b1-4)Glc
# Method in brief: as §1
# [29] = target: Neu5Ac(a2-3)Gal(b1-3)GlcNAc(b1-6)GalNAc
# Method in brief: as §1
# [30] = target: Neu5Ac(a2-3)Gal(b1-3)GlcNAc6S
# Method in brief: as §1
# [31] = target: Neu5Ac(a2-3)Gal(b1-3)[Fuc(a1-4)]GlcNAc
# Method in brief: as §1
# [32] = target: Neu5Ac(a2-3)Gal(b1-3)[Fuc(a1-4)]GlcNAc(b1-3)Gal(b1-3)[Fuc(a1-4)]GlcNAc
# Method in brief: as §1
# [33] = target: Neu5Ac(a2-3)Gal(b1-3)[Fuc(a1-4)]GlcNAc(b1-3)Gal(b1-4)[Fuc(a1-3)]GlcNAc
# Method in brief: as §1
# [34] = target: Neu5Ac(a2-3)Gal(b1-3)[GlcNAc(b1-6)]GalNAc
# Method in brief: as §1
# [35] = target: Neu5Ac(a2-3)Gal(b1-3)[Neu5Ac(a2-6)]GalNAc
# Method in brief: as §1
# [36] = target: Neu5Ac(a2-3)Gal(b1-3)[Neu5Ac(a2-6)]GlcNAc(b1-3)[Fuc(a1-3)[Gal(b1-4)]GlcNAc(b1-6)]Gal(b1-4)Glc
# Method in brief: as §1
# [37] = target: Neu5Ac(a2-3)Gal(b1-3)]Neu5Ac(a2-3)Gal(b1-4)]GlcNAc
# Method in brief: as §1
# Neu5Ac(a2-3)Gal(b1-4)Glc = target: Neu5Ac(a2-3)Gal(b1-4)Glc
# Method in brief: as §1
binder,measurement,setting,value
B1,glycan array binding signal (z-score),[1],-0.266
same,glycan array binding signal (z-score),Kdn(a2-6)Gal(b1-4)GlcNAc,-0.252
same,glycan array binding signal (z-score),[2],-0.323
same,glycan array binding signal (z-score),[3],-0.248
same,glycan array binding signal (z-score),Man(a1-2)Man(a1-3)Man,-0.328
same,glycan array binding signal (z-score),[4],-0.407
same,glycan array binding signal (z-score),[5],-0.327
same,glycan array binding signal (z-score),[6],-0.094
same,glycan array binding signal (z-score),[7],-0.35
same,glycan array binding signal (z-score),[8],-0.422
same,glycan array binding signal (z-score),[9],-0.037
same,glycan array binding signal (z-score),Man(a1-3)[Man(a1-6)]Man,-0.296
same,glycan array binding signal (z-score),[10],0.343
same,glycan array binding signal (z-score),[11],-0.268
same,glycan array binding signal (z-score),[12],-0.329
same,glycan array binding signal (z-score),[13],-0.292
same,glycan array binding signal (z-score),[14],-0.261
same,glycan array binding signal (z-score),Man(a1-6)Man,-0.254
same,glycan array binding signal (z-score),Man(b1-4)GlcNAc,-0.261
same,glycan array binding signal (z-score),MurNAc(b1-4)GlcNAc,-0.365
same,glycan array binding signal (z-score),Neu5Ac(a2-3)Gal,-0.389
same,glycan array binding signal (z-score),[15],-0.292
same,glycan array binding signal (z-score),[16],-0.277
same,glycan array binding signal (z-score),[17],-0.276
same,glycan array binding signal (z-score),[18],-0.341
same,glycan array binding signal (z-score),[19],-0.375
same,glycan array binding signal (z-score),[20],-0.277
same,glycan array binding signal (z-score),[21],-0.267
same,glycan array binding signal (z-score),[22],-0.225
same,glycan array binding signal (z-score),[23],0.052
same,glycan array binding signal (z-score),[24],-0.283
same,glycan array binding signal (z-score),[25],-0.336
same,glycan array binding signal (z-score),[26],-0.348
same,glycan array binding signal (z-score),[27],-0.261
same,glycan array binding signal (z-score),[28],-0.368
same,glycan array binding signal (z-score),[29],-0.264
same,glycan array binding signal (z-score),[30],-0.081
same,glycan array binding signal (z-score),[31],-0.34
same,glycan array binding signal (z-score),[32],-0.447
same,glycan array binding signal (z-score),[33],-0.207
same,glycan array binding signal (z-score),[34],-0.356
same,glycan array binding signal (z-score),[35],-0.37
same,glycan array binding signal (z-score),[36],-0.268
same,glycan array binding signal (z-score),[37],-0.282
same,glycan array binding signal (z-score),Neu5Ac(a2-3)Gal(b1-4)Glc,-0.224
